Data as given in the supplement of paper PMC11417369.
Some of the results follow.

tested on: PfAP2-HC AP2 domain (GST-tagged); assay: gcPBM binding intensity (ln(normalized median fluorescence intensity)); higher = stronger DNA binding
Outline: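 The binding buffer was 1× PBS containing 1% milk, 0.2 mg/ml BSA, 0.5% salmon testes DNA and 0.03% Triton X-100. In it, GST-tagged P. falciparum DNA-binding domains expressed in E. coli were applied for 1 h to an Agilent 4 × 180k array of primer-extended double-stranded 36-bp intergenic genomic probes plus negative controls. Binding intensity, read with Alexa488 anti-GST antibody and a 488 nm scan, is the highest Masliner-normalised natural-log median intensity across replicate spots of either probe orientation.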

Sequence	gcPBM binding intensity (ln)
AAATGAACAAGTGGCACACACACATCATAACTAATT [CACACA_site5730]	10.3
TCCATAAAAATGGATACACACACATAATATATATAT [CACACA_site9207]	10
TATAATATAAGGATCACACACAAACACCCATATATA [CACACA_site4468]	10.4
CATACATACATACATACACACATACCTATATTTATA [CACACA_site6769]	10.2
TTAATAACAAAATAAACACACATATATAAATACCCA [CACACA_site4960]	10
CTAGCAAATACATACACACACACACCGATACAGATA [CACACA_site5853]	10.4
ATATATACATATATTACACACTTCTTATTCTAAGAA [CACACA_site3022]	9.69
TATTTCATGATACAATGTACATGTATATATGATACC [XGTACX_site5057]	9.62
AATAATATATATTACACACGCATCGTTCATTTATTT [CACACA_site2391]	10
TTGCCCATTTAATTAACACACAAATGTTTATATTCT [CACACA_site6488]	10.1
TTTGAAATAAGCAAATGTACATTATTATTAAATATA [XGTACX_site6158]	9.49
TTCACATACAGAAACACACACATATATATAAATTAA [CACACA_site3705]	10.2
TGTATGATAACTATAGTGCATTTGGTAATTTTTCCA	9.51
TAATTTTTTTTTCTTGTACACACTATTTTATAATTT [CACACA_site4078]	9.99
ATCTATGATATATACACACACATGTATAAATAAATA [CACACA_site7012]	10.3
AATAGTATTCACAAAGTTTTATATAATAAATATAAA [GTGCAC_negctrl_site154]	9.62
CGTATTTATATAATTACACACCATATTTTAATTATT [CACACA_site5960]	9.76
ATTTATTTGTTTGTTTTTTTTACGATTTTTATTTTT [CACACA_negctrl_site1138]	9.79
ATAAACAATTAACAAACATGCAAATTTTAAATGTGT [TGCATGCA_site919]	9.68
TTTTTTTTTTTTTTTTGTACATATTTTTAAACTATA [XGTACX_site2897]	9.23
TTTTTTTTTTGATGTTGTACATATATATTATATATA [XGTACX_site6377]	9.63
AGATATATGGACGACTCACACATTTAAATTCATTCA [CACACA_site6047]	9.74
CTTTCATATGTTTTAACACACACGCATATATTATAT [CACACA_site8615]	10.2
TTTTTTTTTTTGATTTGTACACAAAAAAAATATATG [XGTACX_site4547]	9.42
CTTCTTATTTTCTAATGTACGTACAAATCATTTATA [XGTACX_site2176]	9.74
